According to article PMC4336329 (PLoS ONE, 2015):
Out of some 310,000 compounds screened, about 14,000 (4.5%) showed an effect of 50% or more. Effects have a minus sign here. The list shows a part of the results.

Molecular target: human ether-à-go-go-related gene (hERG) potassium channel (human, UniProt Q12809)
Experiment: primary screen, population patch clamp on CHO cells stably expressing hERG
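Further: peak tail current of the secondary pulse compared with the same well before compound.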

Chain of human ether-à-go-go-related gene (hERG) potassium channel (Q12809 whole entry, looked up): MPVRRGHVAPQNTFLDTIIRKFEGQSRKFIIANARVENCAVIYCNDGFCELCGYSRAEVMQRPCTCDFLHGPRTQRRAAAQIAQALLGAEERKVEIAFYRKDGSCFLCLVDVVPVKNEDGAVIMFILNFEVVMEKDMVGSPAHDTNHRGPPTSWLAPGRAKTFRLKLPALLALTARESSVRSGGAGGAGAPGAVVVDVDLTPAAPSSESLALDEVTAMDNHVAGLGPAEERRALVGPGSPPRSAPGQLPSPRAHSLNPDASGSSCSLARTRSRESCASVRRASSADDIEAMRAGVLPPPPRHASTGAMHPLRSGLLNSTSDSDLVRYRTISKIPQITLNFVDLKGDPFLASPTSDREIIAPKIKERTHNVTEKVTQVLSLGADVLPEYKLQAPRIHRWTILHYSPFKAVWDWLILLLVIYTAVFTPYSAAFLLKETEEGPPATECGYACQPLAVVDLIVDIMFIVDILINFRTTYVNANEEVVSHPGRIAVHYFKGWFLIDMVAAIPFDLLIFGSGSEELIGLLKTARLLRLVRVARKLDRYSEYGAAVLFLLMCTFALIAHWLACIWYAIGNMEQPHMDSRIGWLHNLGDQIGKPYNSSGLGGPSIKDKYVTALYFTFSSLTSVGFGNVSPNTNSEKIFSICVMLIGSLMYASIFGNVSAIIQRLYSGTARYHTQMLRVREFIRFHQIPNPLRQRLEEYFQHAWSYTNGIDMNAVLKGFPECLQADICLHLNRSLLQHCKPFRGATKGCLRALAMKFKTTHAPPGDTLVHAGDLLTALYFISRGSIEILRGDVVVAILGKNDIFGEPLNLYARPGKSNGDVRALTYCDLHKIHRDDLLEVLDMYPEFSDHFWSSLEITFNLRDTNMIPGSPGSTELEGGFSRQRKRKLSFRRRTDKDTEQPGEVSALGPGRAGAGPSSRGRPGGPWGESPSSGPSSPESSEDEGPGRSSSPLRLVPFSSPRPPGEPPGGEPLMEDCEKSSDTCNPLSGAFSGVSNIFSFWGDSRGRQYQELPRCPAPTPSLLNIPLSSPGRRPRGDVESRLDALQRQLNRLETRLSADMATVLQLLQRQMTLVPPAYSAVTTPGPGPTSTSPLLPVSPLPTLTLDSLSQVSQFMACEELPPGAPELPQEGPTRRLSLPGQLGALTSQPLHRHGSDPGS

Row | Structure (SMILES) | hERG current change (%, negative = inhibition) at 10uM [%]
1 | COCC1COS(=O)(=O)NC1(C)C (centres unmarked) | 4.24
2 | O=C1c2ccccc2C(=O)N1c1nc2nccc(-c3ccccc3)n2n1 | 9.56
3 | CCOC(=O)/C(C#N)=C/Nc1ccccc1OC | 0.538
4 | Cc1[nH]c2ccccc2c1C(=O)C(=O)NCCCc1ccccc1 | -2.91
5 | CCn1c(P(C)(=O)[O-])nc2cc(NC(=O)c3ccccc3Cl)ccc21.[K+] | 6.96
6 | O=C(CF)NC(NC(=S)Nc1cccc([N+](=O)[O-])c1)C(Cl)(Cl)Cl (centres unmarked) | 6.12
7 | Cc1cc(C(=O)OCn2nnc3ccccc3c2=O)c(C)n1-c1ccccc1 | 16.3
8 | CCC(C)n1c(O)c(/C=N/Nc2ccccc2)c(=O)[nH]c1=S (centres unmarked) | -25.1
9 | COc1ccc(C)cc1NC(=O)C1CCCN1S(=O)(=O)c1ccccc1F (centres unmarked) | -9.61
10 | COc1ccc2oc(C(=O)OCC(=O)N(Cc3ccccc3)C(C)(C)C)c(C)c2c1 | 10.5
11 | CSc1nc(NCc2ccco2)c2sc3nc(C(C)C)c4c(c3c2n1)CC(C)(C)OC4 | 2.32
12 | Cc1c(NS(=O)(=O)c2ccc(NCC3CCCO3)c([N+](=O)[O-])c2)c(=O)n(-c2ccccc2)n1C (centres unmarked) | -18.9
13 | COc1cccc(-c2nnc(SCC(=O)Nc3cc(C)on3)o2)c1 | 3.16
14 | COc1ccc(OCCCC(=O)NCCc2ccccc2)cc1 | -7.79
15 | CCOc1ccc(-n2c(-c3ccc(OC)cc3)c[n+]3c2CCCCC3)cc1.[Br-] | -76
16 | Cc1ccc(N2CC(C(=O)N3CCC(C(=O)Nc4nnc(C(C)(C)C)s4)CC3)CC2=O)cc1 (centres unmarked) | -3.37
17 | NC(=O)c1ccccc1NS(=O)(=O)c1ccc(F)cc1 | 17.4
18 | Cc1ccnc2nc(C(=O)Nc3nnc(-c4ccccc4)o3)nn12 | 5.4
19 | COc1ccc(CN2CCNC(=O)C2CC(=O)NCCSc2nccn2C)c(OC)c1 (centres unmarked) | 7.79
20 | COc1cccc(C(=O)NN2CC(O)=C(c3nc4ccccc4n3C)C2=N)c1 | -6.93
21 | CCOc1ccc(OCC)c(NC(=O)CCn2c(=O)oc3ccccc32)c1 | -4.3
22 | Cn1c(CN2CCN(CCO)CC2)c(C#N)c2ccccc21 | -13.9

Row | Structure (SMILES) | hERG current change (%, negative = inhibition) at 10uM [%]
23 | NC(=O)CC(c1ccccc1)c1ccco1 (centres unmarked) | 19.8
24 | CCc1nnc(NS(=O)(=O)c2ccc(NC(=S)Nc3ccc(F)cc3)cc2)s1 | 13.1
25 | Fc1cccc(CSc2nc3ncc(Cl)cc3[nH]2)c1 | 15.9
26 | CC(=O)NN1C(=O)/C(=C\c2ccccc2)SC1=S | -7.01
27 | Cc1cc(C)nc(NCC(O)COc2ccccc2C)n1 (centres unmarked) | 7
28 | CC(CCc1ccccc1)NC(=O)CN1C(=O)NC2(CCCCC2)C1=O (centres unmarked) | 6.05
29 | O=C(/C=C/c1ccc([N+](=O)[O-])cc1)OCc1cnc(-c2ccccc2)o1 | 6.89
30 | COC(=O)c1ccccc1NC(=O)c1cc([N+](=O)[O-])nn1Cc1ccccc1 | 13
31 | CCN(CC)CCN(C(=O)c1cc2c(ccc3ccccc32)oc1=O)c1nc2cc3c(cc2s1)OCCO3.Cl | 1.58
32 | Cc1ccc(S(=O)(=O)Nc2c(C)nc3nc(C)[nH]n3c2=O)cc1 | 19.9
33 | Nc1ccccc1C(=O)Nc1ccc(Cl)cc1Cl | 12.4
34 | N=c1c2c3c(sc2ncn1N)CCCCC3 | -12.6
35 | CC(=O)C1C(=O)c2c(cccc2[N+](=O)[O-])C1=Nc1cccc(Cl)c1 (centres unmarked) | -1.78
36 | Oc1ccccc1-c1csc(-c2ccccc2)n1 | 15
37 | CS(=O)(=O)c1sc(C#N)c2c1C(=O)CC(c1ccccc1)C2 (centres unmarked) | 16.9
38 | COCCCN1C(=O)c2ccc(C(=O)Nc3ccc(C)cc3C)cc2C1=O | 2.51
39 | Cc1ccccc1OCC(=O)N(Cc1nnc(-c2ccc(Cl)cc2)o1)C(C)C | -53.5
40 | CCC1(c2ccccc2)NC(=O)N(Cc2cccc([N+](=O)[O-])c2)C1=O (centres unmarked) | -38.8
41 | COc1cc(/C=N/NC(=S)NC(C)C)ccc1OCC(=O)Nc1c(C)cc(C)cc1C | 9.83
42 | COc1cc(NC(=O)C2=C(C)OCCS2)c(Cl)cc1C(=O)NCCN(C)C | -3.65
43 | CC/C(=N\N1CCN(C)CC1)c1c(O)[nH]c(=O)[nH]c1=O | 8.15
44 | O=C(CCn1c(=O)c2cccn2c2ccccc21)Nc1ccc(F)cc1 | -16
